Experimental data taken from patent US4301065A, “Novel polypeptides having thymic activity or an antagonistic activity and processes for their synthesis” (Agence Nationale de Valorisation de la Recherche (ANVAR), priority 1977, dated 1981).
“And” between values parts separate entries of the source, which are not always exact repeats. Equal values may be shown once. Not every detail of the peptide structures is certain; ends, links or a residue may be inferred. Some compounds share one wording; it may come from a single statement. Square brackets hold non-standard residues; d marks the D form. Ends that are not written are not given here. Peptide text beside a SMILES is read from it. pGlu = O=C1CC[C@@H](C(=O)O)N1

Experiments:
[1] = test system: spleen cells of thymectomised mice; test: Test in vitro of the inhibiting or antagonising activity of inactive polypeptides against STF; format: cell-based; settings: inactive polypeptide incubated with STF and spleen cells of thymectomised mice
thymectomised mice = test: Activity in vivo: study of the serum after injection of peptide absorbed on carboxymethyl cellulose; settings: for Activity in vivo: Table I, thymectomised mice; for Active or inactive polypeptide (conclusion from Tables I to IV): overall judgement of the tests in vitro and in vivo
Procedure: The peptides active in vitro were also checked in tests carried out in vivo. Injected into 6 weeks old thymectomised mice and used 8 weeks after the thymectomy, the peptides produce the appearance at the 15th minute in the serum of a biological activity conferring the sensitivity to the azothioprine of the spleen cells forming rosettes. […] (2) Activity in vivo (study of the serum 2 hours and 4 hours after injection into thymectomised mice in different quantities (0.1, 1 or 10 ng) of peptide absorbed on carboxymethyl cellulose). The results of the tests in vivo on the serum and on the spleen, set out in Tables II, III and IV, were established by the procedure as previously indicated.

[2] = test system: rosette-forming cells of the spleen of thymectomised mice; test: Test in vivo on the spleen: correction of the reactivity of rosette-forming spleen cells to azathioprine; settings: individual values
Procedure: (3) Correction of the abnormal reactivity of the cells forming the rosettes of the spleen with azathioprine in thymectomised mice 24 hours after injecting the peptide (0.1, 1 and 10 ng) bonded to the carboxymethyl cellulose.
The tests on the spleen were carried out by determining the quantity of azathioprine which is necessary for inhibiting the rosette-forming cells of the spleen of thymectomised mice after an established time (24 hours and possibly also 48 hours) after the injection of an established quantity of polypeptide (0.1, 1 or 10 ng).

antibodies = test: Bonding with the antibodies; format: binding; parameters: key: +: the peptide is bonded; -: is not bonded to the antibodies
Description: The suitability of the peptides for being bonded to the antibodies is indicated by the + and - symbols, which respectively signify that the peptide is bonded or is not bonded to the antibodies.

[3] = test system: cells of the spleen forming rosettes (RFC); test: Rosette test in vitro (thymic activity); format: cell-based, adult C 57/B1 6 mice; settings: for Activity in vitro: Table I; for Active concentration (ng/ml) (test in vitro): azathioprine 10 μg/ml, 90 minutes at 37° C.
Procedure: The thymic activity of the polypeptide is established by incubation in a hemolysis tube with 3×10^6 cells of the spleen originating from adult C 57/B1 6 mice (supplied by the Centre d'Elevage des Animaux de Laboratoire of C.N.R.S. (45 Orleans, La Source), thymectomised 10 to 20 days previously. The thymectomy method is described by M. Dardenne and J. F. Bach in Immunology, 25, 343 (1973) on page 344. The contents of this article are incorporated herein by reference.
The incubation is carried out for 90 minutes at 37° C. in the presence of azathioprine (Az) at a concentration of 10 μg/ml.
On completion of the incubation, 12×10^6 red cells from sheep's blood (SRBC) are added to the cells in the test specimen. The cells in the specimen are centrifuged for 6 minutes at 200 g and carefully brought gently into suspension by rotation on a roller (diameter 10 cm) at a low speed (10 r.p.m.). The RFC are counted in a hematocytometer.
(1) Activity in vitro in the rosette test.

[4] = Table II, quantity injected 0,1 ng
[5] = Table II, quantity injected 1 ng
[6] = Table IV, quantity injected 0,1 ng

| Compound | Antagonistic or inhibiting action in vitro as regards STF [1] | Activity in vivo (thymectomised mice) | Active or inactive polypeptide (conclusion from Tables I to IV) (thymectomised mice) | Spleens (test in vivo) 24 hours after injection: Quantity of azathioprine [2, 4] | Spleens (test in vivo) 24 hours after injection: Quantity of azathioprine [2, 5] | Bonding with the antibodies (antibodies; Table I) | Bonding with the antibodies (antibodies; Table II) | Activity in vitro [3] | Active concentration (ng/ml) (test in vitro) ([3]; Table II) | Spleens (test in vivo) 24 hours after injection: Quantity of azathioprine [2, 6] | Bonding with the antibodies (antibodies; Table IV) | Retarding activity (thymectomised mice; appreciable activity 4 hours after injection (serum) and 48 hours after injection (spleen)) | Active concentration (ng/ml) (test in vitro) ([3]; Table III) | Spleens (test in vivo) 24 hours after injection: Quantity of azathioprine (μg) [2, 5] | Spleens (test in vivo) 24 hours after injection: Quantity of azathioprine (μg) ([2]; Table II, quantity injected 10 ng) |
| --- | --- | --- | --- | --- | --- | --- | --- | --- | --- | --- | --- | --- | --- | --- | --- |
| C[C@H](NC(=O)[C@@H]1CCC(=O)N1)C(=O)N[C@@H](CCCCN)C(=O)N[C@@H](CO)C(=O)N[C@@H](CCC(N)=O)C(=O)NCC(=O)NCC(=O)N[C@@H](CO)C(=O)N[C@@H](CC(=O)O)C(=O)O [Peptide 53, PyroGlu-Ala-Lys-Ser-Gln-Gly-Gly-Ser-Asp] ([pGlu]AKSQGGSD-OH) | antagonistic | inactive: - | inactive | 50 μg (2×) and 25 μg | 25 μg and 50 μg (2×) | - | - | inactive: - | < 0,03 ng/ml |  |  |  |  |  |  |
| C[C@H](NC(=O)[C@@H]1CCC(=O)N1)C(=O)N[C@@H](CCCCN)C(=O)N[C@H](CO)C(=O)N[C@@H](CCC(N)=O)C(=O)NCC(=O)NCC(=O)N[C@@H](CO)C(=O)N[C@@H](CC(N)=O)C(=O)O [Peptide 66, PyroGlu-Ala-Lys-D-Ser-Gln-Gly-Gly-Ser-Asn] ([pGlu]AK[dS]QGGSN-OH) | antagonistic | inactive: - | inactive | 50 µg |  | - | + | inactive: - | < 0,03 ng/ml |  |  |  |  |  |  |
| C[C@@H](NC(=O)[C@H](CCC(N)=O)NC(=O)[C@H](CO)NC(=O)[C@@H](N)CCCCN)C(=O)NCC(=O)N[C@@H](CO)C(=O)N[C@@H](CC(N)=O)C(=O)O [Peptide 88, Lys-Ser-Gln-D-Ala-Gly-Ser-Asn] (H-KSQ[dA]GSN-OH) |  | inactive: - | inactive |  |  | + |  | inactive: - |  | 50 µg and 25 µg | + |  |  |  |  |
| K(Ac)SQGGSN [Peptide 82, Lys(Ac)-Ser-Gln-Gly-Gly-Ser-Asn] |  | inactive: - | inactive | 50 µg |  | + | + | inactive: - | < 0,03 ng/ml |  |  |  |  |  |  |
| C[C@H](NC(=O)[C@@H]1CCC(=O)N1)C(=O)N[C@@H](CCCCN)C(=O)N[C@@H](CO)C(=O)N[C@@H](CCC(N)=O)C(=O)NCC(=O)NCC(=O)N[C@@H](CO)C(=O)N[C@H](CC(N)=O)C(=O)O [Peptide 90, PyroGlu-Ala-Lys-Ser-Gln-Gly-Gly-Ser-D-Asn] ([pGlu]AKSQGGS[dN]-OH) |  | +R | active |  |  | + |  | inactive: - |  | 6 μg and 12 μg (2×) | + | retarding activity | < 0,03 ng/ml |  |  |
| AKSQGGSN [Peptide 38, Ala-Lys-Ser-Gln-Gly-Gly-Ser-Asn] |  | active: + | active |  |  | + | + | active: + |  |  |  |  |  | 0,3 μg | 0,3 μg |
